Data taken from the supplement of paper PMC11417369.
This is one part of the list.

System: PfHDP1 homeodomain (GST-tagged)
Assay: gcPBM binding intensity (ln(normalized median fluorescence intensity)); higher = stronger DNA binding
Summary of the method: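 GST-fused DNA-binding domains of P. falciparum, expressed in E. coli, were applied at about 25 μg on average for 1 h to an Agilent 4 × 180k array of primer-extended double-stranded 36-bp intergenic genomic probes and negative controls. Binding intensity is the highest Masliner-normalised natural-log median intensity across replicate spots of either probe orientation, measured with Alexa488 anti-GST antibody and a 488 nm scan.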

| Sequence | gcPBM binding intensity (ln) |
| --- | --- |
| TTTTTTCTAATATCTTTGCCTTTTTCTTTATTTATT [CACACA_negctrl_site1053] | 6.77 |
| TATACTCATTTTTATACACACTTGTTTTATAAAACG [CACACA_site4561] | 7.16 |
| ATATATATATATATATGTACATATGTATGTGTTTGT [XGTACX_site397] | 9.35 |
| CTATATGTATAAAGTTGTACAGTTTTTCAAAGTTAA [XGTACX_site6652] | 6.34 |
| AAATTTATTATGAACATACACACAAAAAAAAAAAGT [CACACA_site2053] | 7.02 |
| AAAATAACAAAATAAAGTACTTTTAAAAGATATAAT [XGTACX_site7632] | 6.59 |
| AAAAGTAACAAAGCTACACACATTTAAATAAACATA [CACACA_site1421] | 6.64 |
| TTTTTAATTCAAACAATAATATGTTATATTTCAAAT [TGCATGCA_negctrl_site27] | 6.22 |
| GATTTTCTAATTTCTACACACATATAAGAATATTCA [CACACA_site7340] | 6.36 |
| TGTATAAAACATGGGTGTACTGAACTCAATCATATA [XGTACX_site1215] | 6.52 |
| GTTTTACACAGACATGCATGTGAAAATTTGATGGTA [TGCATGCA_site308] | 6.64 |
| TATCATCATGTATGTACACACATACCTATATTATGT [CACACA_site6768] | 6.71 |
| TTTATTTCTATATTTACATGCAAAGGGTTAGTTATA [TGCATGCA_site983] | 6.58 |
| AAGAAAAAGAATAGACGGACAACTAATATAAAATAT [XGTACX_site7905] | 6.53 |
| TTTTTTTTTTTCATGTGTACATATATTTTCACTTTA [XGTACX_site4475] | 6.64 |
| GATCTTTTTTTTCTTACTTTACAATTTTTTTTTTAC [XGTACX_negctrl_site101] | 6.94 |
| ATTATATAAATTATATGTACGTATTTTTTTTTTTTT [XGTACX_site1908] | 6.2 |
| AATTAAATTACTTATACACACATAAAATGTCTGTAT [CACACA_site997] | 6.71 |
| AAATTATGAACATATTGTACATATATATATATATAT [XGTACX_site8269] | 9.41 |
| CATGTATGTACCATGGTGCAACAATATTTTTAACAA [GTGCAC_site9597] | 8.57 |
| TCATTGTTAAGCTGAAGTACTTATAATTACATCGAG [XGTACX_site6340] | 6.45 |
| AATATATTTTAATATACACACATATCTGCTCTTTAA [CACACA_site6130] | 6.48 |
| TAAAATTATATAAAGGAACACACATTTTATTTTATT [CACACA_site8423] | 6.28 |

| Sequence | gcPBM binding intensity (ln) |
| --- | --- |
| TATTAGCATGTTATTACACACAATATAAAATATATA [CACACA_site1401] | 6.65 |
| TGTCAATCATATAAATGTACATTTTAAATGAGGTGT [XGTACX_site7391] | 6.93 |
| CAAATAAAAATAAGGAGTACAATTAAAAAAGGAAGG [XGTACX_site4366] | 6.73 |
| GAAAAGAAAAATAAACGTACATAAATATTAACATTA [XGTACX_site8213] | 5.83 |
| AAAATAAAAAAGTGTACACATATTAAAATGTATTTA [CACACA_site4424] | 6.56 |
| TATTTATTGTGATACTACTATTATTTTATGATTAAA [CACACA_negctrl_site284] | 6.23 |
| ACCCAATTTTAAAATGAACACACATGTTTTTCTTAC [CACACA_site8246] | 6.93 |
| ATAATTATATATTTATGTACGCATAAATATTTATAT [XGTACX_site5765] | 6.38 |
| AACTATATCATTTATTTTATTTTTTAAATACATTTA [CACACA_negctrl_site183] | 6.19 |
| TATATATAACTTTATTGTACAAAATATTATGTATTC [XGTACX_site981] | 6.57 |
| TTATATTATTTTTAATGTACTTTTTATGAATACAAA [XGTACX_site689] | 7.03 |
| TATACAACTTTATGAAGTACAAAAAGTTCTATATAT [XGTACX_site3866] | 6.15 |
| TTGTTTTATTATTCGATGCACTACAGAAATATATTC | 7.75 |
| TATAATATTATATATAAACACACATACACATGTAAA [CACACA_site8631] | 7.08 |
| AGAAAAGTTTAATACAGTACATAAACAAAGTATAGG [XGTACX_site2386] | 6.71 |
| GTATATTTATAGCCTTTATTATATTTAATATTATTA [TGCATGCA_negctrl_site26] | 6.24 |
| GTTATATTTTTTTATACACACTGGAATATATAAATA [CACACA_site4282] | 6.76 |
| TGTAATAAATAGTACACACACACATATTTATATATC [CACACA_site6770] | 6.87 |
| ATATGGGTAATGAATTGTACTCTTTCTTGTTGTTCT [XGTACX_site4487] | 6.34 |
| GTATAATTTTCGTATTCACACAAGAATATACTACAT [CACACA_site4877] | 6.51 |
| AATATATGTATGTACGCATGTATGTATCTATGTATT [TGCATGCA_site389] | 6.52 |
| TTATAATTATATACATGTACATATAATACATATATA [XGTACX_site8904] | 6.54 |
| TATATTATATACCATTGTACATATAATATAGGTTCT [XGTACX_site7047] | 6.25 |

| Sequence | gcPBM binding intensity (ln) |
| --- | --- |
| AAAATCATTCCAAAGACATGCATTTTGCAAATAAAA [TGCATGCA_site461] | 9.22 |
| AAAAACAGAAATGTAACACACAAAAATTCTATTTAT [CACACA_site4026] | 6.2 |
| TTTTGTTATAAATAATGTACATATTTATTTAAAATT [XGTACX_site6610] | 6.25 |
| TCTATAAAGGAATATACACACATATATAAATATGTA [CACACA_site6332] | 6.27 |
| AACCTTTATATGTAAAGTACAAAAAAGAGTAAAAAA [XGTACX_site5506] | 6.69 |
| TATAAAAATGTGCACACACACACATATTTATATTTA [CACACA_site6826] | 10.1 |
| TTTATTATTTTTAGGAGTACACAAAATAAAACAAAT [XGTACX_site8841] | 6.68 |
| ATTAATTATAATGTATGTACATAACTTTTTTATATT [XGTACX_site5784] | 6.5 |
| GAAAATACGTTTAATCGTACATATATATAATATATA [XGTACX_site4243] | 6.56 |
| AACATACATAGACACACACACACACGCACACGCACA [CACACA_site6373] | 7.4 |
| ACAAGTTTTTTTTTATCACACACAAAAAAAAAAATA [CACACA_site8377] | 6.29 |
| TATTTACCCTCATGTTGTACTTTTCATTCATTTTAT [XGTACX_site7794] | 7.34 |
| TATAACATTGTATGAATGCACTTTTATCTATTTTAA [GTGCAC_site9903] | 7.25 |
| AAGATACACTTAATCGCACACGAAATTATATATTTA [CACACA_site3063] | 6.98 |
| TTTTTTTTTTATGTTATTAAAAAAAAAAAAAATTAA [CACACA_negctrl_site222] | 5.75 |
| AAATGTTATATATAATGTACTTGTAAGAACGTTCCT [XGTACX_site2840] | 6.47 |
| ATAATTTTAAATAAATGTACATATAGATGTGTGTAA [XGTACX_site3958] | 6.89 |
| AATAATGTATGAAATAAACACACAAGTAAGTACATA [CACACA_site8776] | 6.61 |
| AAAATTATATATTATAGTACATAAAATATTGATAAA [XGTACX_site8988] | 6.27 |
| ATGAGAAAATATATTATTTTATATGAACAAGTTTAT [XGTACX_negctrl_site372] | 6.09 |
| AAAAAAAAAAAAAAAACACACATTTAATGAACTTAT [CACACA_site1276] | 6.6 |
| ACTTGTAAGAAACACACACACACACCGATATATATA [CACACA_site4594] | 6.87 |
| AAAAATAAGAAAAAGTGTACTTTATTATGTATATAT [XGTACX_site2305] | 6.35 |

| Sequence | gcPBM binding intensity (ln) |
| --- | --- |
| ATTATTTTTTTTCTTATACACACCATGCATCAAACT [CACACA_site2128] | 7.76 |
| ATATATAATCATATGTGTACATATATATTAATTTAA [XGTACX_site2839] | 6.54 |
| AATTCAAAATAAAAATGTACATATATCAGAATATGG [XGTACX_site42] | 6.5 |
| TTTTTTTTTTTTTATTGTACATGCAAAAAATTCCAC [XGTACX_site2371] | 6.43 |
| ATATATATATATTGTAGTACTTATTAAATTATTTAT [XGTACX_site6235] | 8.71 |
| TCTGTATTTCCTTATGCATGCATTAGCAAGATAATA [TGCATGCA_site483] | 7.19 |
| GTAAGTATATATAAATGTACTTATGAGGTCAAATTA [XGTACX_site3392] | 6.18 |
| TTGGGTATTTTGTGCGCACACACATGCAAAAAGAAA [CACACA_site8299] | 9.63 |
| CCAACTATATTATGAAGTACATATATATTATATATA [XGTACX_site5767] | 6.74 |
| TATACATATTTTATAGCACACAAATAATAATATGTA [CACACA_site8129] | 6.63 |
| AAACCTACATAACATACACACGCATATATATAATTT [CACACA_site8923] | 6.89 |
| TGCGACCATAATAAAGCACACAATGAAAAATATATA [CACACA_site256] | 6.77 |
| ATAATATGAAACTAAGGTACACATATATTAACAGAG [XGTACX_site3842] | 6.73 |
| TACAAATTAATATGTACACACAAATATATATATATA [CACACA_site1977] | 9.17 |
| TGTGCTCAAAATTATGCACACACCTAAAATTAATTT [CACACA_site8950] | 10.7 |
| AGAGATACATAAAAAAGTACATATAAAATTTAGGAA [XGTACX_site7201] | 6.52 |
| TAAGTATACTCATACACACACACACTAGAAAAAAAA [CACACA_site4397] | 6.89 |
| TATTTATTTATATACACACACTTGTATAAAAAATGT [CACACA_site7048] | 6.75 |
| ATATATATATATGTATGTACACATATTTTTTAACTT [XGTACX_site431] | 8.99 |
| AAATAAATAAATTAACGTACATAATAACATTAATAT [XGTACX_site8567] | 6.1 |
